The list shows a part of the results.
What was measured:
Test in all cases: glycan array binding signal (z-score within array); higher = stronger binding
Settings in all cases: glycan notation: IUPAC condensed, linker removed
[1] = biological target: Fuc(a1-2)Gal(b1-4)GlcNAc(b1-3)Gal(b1-4)GlcNAc(b1-2)Man(a1-3)[Fuc(a1-2)Gal(b1-4)GlcNAc(b1-3)Gal(b1-4)GlcNAc(b1-2)Man(a1-6)]Man(b1-4)GlcNAc(b1-4)GlcNAc
Method in brief: (§1)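 The binding signal is a Z-score computed within each array and averaged over linkers. Arrays of the same protein sequence at different concentrations or buffers were also averaged together. Data originate from 3228 arrays in the Consortium for Functional Glycomics database, kept only where the protein sequence was available.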

[2] = biological target: Fuc(a1-2)Gal(b1-4)GlcNAc(b1-3)Gal(b1-4)GlcNAc(b1-3)Gal(b1-4)GlcNAc
Method in brief: as §1

[3] = biological target: Fuc(a1-2)Gal(b1-4)GlcNAc(b1-3)GalNAc
Method in brief: as §1

[4] = biological target: Fuc(a1-2)Gal(b1-4)GlcNAc(b1-3)[Fuc(a1-2)Gal(b1-4)GlcNAc(b1-6)]GalNAc
Method in brief: as §1

[5] = biological target: Fuc(a1-2)Gal(b1-4)GlcNAc(b1-3)[Fuc(a1-3)[Gal(b1-4)]GlcNAc(b1-6)]Gal(b1-4)Glc
Method in brief: as §1

[6] = biological target: Fuc(a1-2)Gal(b1-4)GlcNAc(b1-6)GalNAc
Method in brief: as §1

[7] = biological target: Fuc(a1-2)Gal(b1-4)GlcNAc6S
Method in brief: as §1

[8] = biological target: Fuc(a1-2)Gal(b1-4)[Fuc(a1-3)]GlcNAc
Method in brief: as §1

[9] = biological target: Fuc(a1-2)Gal(b1-4)[Fuc(a1-3)]GlcNAc(b1-2)Man(a1-3)[Fuc(a1-2)Gal(b1-4)[Fuc(a1-3)]GlcNAc(b1-2)Man(a1-6)]Man(b1-4)GlcNAc(b1-4)[Fuc(a1-6)]GlcNAc
Method in brief: as §1

[10] = biological target: Fuc(a1-2)Gal(b1-4)[Fuc(a1-3)]GlcNAc(b1-2)[Fuc(a1-2)Gal(b1-4)[Fuc(a1-3)]GlcNAc(b1-4)]Man(a1-3)[Fuc(a1-2)Gal(b1-4)[Fuc(a1-3)]GlcNAc(b1-2)Man(a1-6)]Man(b1-4)GlcNAc(b1-4)GlcNAc
Method in brief: as §1

[11] = biological target: Fuc(a1-2)Gal(b1-4)[Fuc(a1-3)]GlcNAc(b1-3)Gal(b1-4)[Fuc(a1-3)]GlcNAc
Method in brief: as §1

[12] = biological target: Fuc(a1-2)Gal(b1-4)[Fuc(a1-3)]GlcNAc(b1-3)Gal(b1-4)[Fuc(a1-3)]GlcNAc(b1-3)Gal(b1-4)[Fuc(a1-3)]GlcNAc
Method in brief: as §1

[13] = biological target: Fuc(a1-2)Gal(b1-4)[Fuc(a1-3)]GlcNAc(b1-3)GalNAc
Method in brief: as §1

[14] = biological target: Fuc(a1-2)Gal(b1-4)[Fuc(a1-3)]GlcNAc(b1-3)[Neu5Ac(a2-6)Gal(b1-4)GlcNAc(b1-6)]Gal(b1-4)Glc
Method in brief: as §1

[15] = biological target: Fuc(a1-2)Gal3S(b1-4)GlcNAc
Method in brief: as §1

[16] = biological target: Fuc(a1-2)Gal6S(b1-3)GlcNAc
Method in brief: as §1

[17] = biological target: Fuc(a1-2)Gal6S(b1-3)GlcNAc6S
Method in brief: as §1

Fuc(a1-2)Gal6S(b1-4)Glc = biological target: Fuc(a1-2)Gal6S(b1-4)Glc
Method in brief: as §1

[18] = biological target: Fuc(a1-2)Gal6S(b1-4)Glc6S
Method in brief: as §1

Fuc(a1-2)[Gal(a1-3)]Gal = biological target: Fuc(a1-2)[Gal(a1-3)]Gal
Method in brief: as §1

[19] = biological target: Fuc(a1-2)[Gal(a1-3)]Gal(b1-3)GalNAc
Method in brief: as §1

[20] = biological target: Fuc(a1-2)[Gal(a1-3)]Gal(b1-3)GalNAc(b1-3)Gal(a1-4)Gal(b1-4)Glc
Method in brief: as §1

[21] = biological target: Fuc(a1-2)[Gal(a1-3)]Gal(b1-3)GlcNAc
Method in brief: as §1

[22] = biological target: Fuc(a1-2)[Gal(a1-3)]Gal(b1-3)GlcNAc(b1-2)Man(a1-3)[Fuc(a1-2)[Gal(a1-3)]Gal(b1-3)GlcNAc(b1-2)Man(a1-6)]Man(b1-4)GlcNAc(b1-4)GlcNAc
Method in brief: as §1

[23] = biological target: Fuc(a1-2)[Gal(a1-3)]Gal(b1-3)GlcNAc(b1-2)Man(a1-3)[Fuc(a1-2)[Gal(a1-3)]Gal(b1-3)GlcNAc(b1-2)Man(a1-6)]Man(b1-4)GlcNAc(b1-4)[Fuc(a1-6)]GlcNAc
Method in brief: as §1

[24] = biological target: Fuc(a1-2)[Gal(a1-3)]Gal(b1-3)GlcNAc(b1-3)GalNAc
Method in brief: as §1

[25] = biological target: Fuc(a1-2)[Gal(a1-3)]Gal(b1-3)GlcNAc(b1-6)GalNAc
Method in brief: as §1

[26] = biological target: Fuc(a1-2)[Gal(a1-3)]Gal(b1-4)Glc
Method in brief: as §1

[27] = biological target: Fuc(a1-2)[Gal(a1-3)]Gal(b1-4)GlcNAc
Method in brief: as §1

[28] = biological target: Fuc(a1-2)[Gal(a1-3)]Gal(b1-4)GlcNAc(b1-2)Man
Method in brief: as §1

B1: Epa23 (Candida glabrata) (protein)
chain: MGSSHHHHHHSSGLVPRGSHMIPNPFEGTINNFPSGCSPNHGLYNRGLTMELYNYSYIHPQSIQSYFNTSTLKKMEKGQCWDPSYLDVNYPRTGYKTHNRFAKVNGIDGILDFEFNPTRSCVPSKGQLPQNYNYPLQFTLSNFTMLLYGYFKPKVTAKHTFTIFADDLLFLNFGAGNAFDCCQQQDTIDDFGNYQAYALWGSDTQQNTLTVNLDANIYYPIRMFYNNRDFKGALNMYFTTDESNTKINDFSGYLFNIPDSSEGCPAHISYETECGNVSG
Question: Which “glycan array binding signal (z-score)” value [1] does the source give for B1 here?
Answer: -0.226

Question: And the “glycan array binding signal (z-score)” value [2]?
Answer: -0.283

Question: And the “glycan array binding signal (z-score)” value [3]?
Answer: -0.207

Question: And the “glycan array binding signal (z-score)” value [4]?
Answer: -0.14

Question: What about the “glycan array binding signal (z-score)” value [5] of the same binder?
Answer: -0.178

Question: What about the “glycan array binding signal (z-score)” value [6] of the same binder?
Answer: -0.222

Question: And the “glycan array binding signal (z-score)” value [7]?
Answer: -0.169

Question: What about the “glycan array binding signal (z-score)” value [8] of the same binder?
Answer: -0.251

Question: What about the “glycan array binding signal (z-score)” value [9] of the same binder?
Answer: -0.119

Question: And the “glycan array binding signal (z-score)” value [10]?
Answer: -0.161

Question: What about the “glycan array binding signal (z-score)” value [11] of the same binder?
Answer: -0.188

Question: And the “glycan array binding signal (z-score)” value [12]?
Answer: -0.161

Question: And the “glycan array binding signal (z-score)” value [13]?
Answer: -0.202

Question: And the “glycan array binding signal (z-score)” value [14]?
Answer: -0.221

Question: What about the “glycan array binding signal (z-score)” value [15] of the same binder?
Answer: 0.334

Question: What about the “glycan array binding signal (z-score)” value [16] of the same binder?
Answer: -0.255

Question: And the “glycan array binding signal (z-score)” value [17]?
Answer: -0.167

Question: What about the “glycan array binding signal (z-score)” value (Fuc(a1-2)Gal6S(b1-4)Glc) of the same binder?
Answer: -0.135

Question: What about the “glycan array binding signal (z-score)” value [18] of the same binder?
Answer: -0.134

Question: And the “glycan array binding signal (z-score)” value (Fuc(a1-2)[Gal(a1-3)]Gal)?
Answer: -0.234

Question: What about the “glycan array binding signal (z-score)” value [19] of the same binder?
Answer: -0.19

Question: What about the “glycan array binding signal (z-score)” value [20] of the same binder?
Answer: -0.242

Question: And the “glycan array binding signal (z-score)” value [21]?
Answer: -0.176

Question: What about the “glycan array binding signal (z-score)” value [22] of the same binder?
Answer: -0.199

Question: And the “glycan array binding signal (z-score)” value [23]?
Answer: -0.211

Question: What about the “glycan array binding signal (z-score)” value [24] of the same binder?
Answer: -0.247

Question: And the “glycan array binding signal (z-score)” value [25]?
Answer: -0.225

Question: What about the “glycan array binding signal (z-score)” value [26] of the same binder?
Answer: -0.204

Question: And the “glycan array binding signal (z-score)” value [27]?
Answer: -0.198

Question: What about the “glycan array binding signal (z-score)” value [28] of the same binder?
Answer: -0.173

From the supplement of paper PMC8728848
